{
  "source": "patent US9751932B2",
  "about": "“Anti-big-endothelin-1 (big-ET-1) antibodies and uses thereof” (Regeneron Pharmaceuticals, Inc., priority 2012, dated 2017)",
  "key": {"[1]": {"biological_target": "T1, human big-ET-1 (SEQ ID NO:434) (Homo sapiens, UniProt P05305)", "T1 sequence (P05305 53-90 limits assumed)": "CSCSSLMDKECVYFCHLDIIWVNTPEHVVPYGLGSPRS", "assay": "Surface plasmon resonance (Biacore) binding, mAb capture format, 37° C.", "procedure": "(§1) Measurements were conducted on a T200 Biacore instrument (Biacore Life Sciences division of GE Healthcare, Piscataway, N.J.). […] Different concentrations of small-ET-1 (SEQ ID NO:435), human big-ET-1 (SEQ ID NO:434) or mouse big-ET-1 (SEQ ID NO:437) were injected over the anti-big-ET-1 captured surfaces at a flow rate of 100 μl/min. Peptide binding was monitored for 3 min while dissociation of mAb-bound peptide was monitored for 4 min in HBST running buffer (0.01 M HEPES pH 7.4, 0.15 M NaCl, 3 mM EDTA, 0.005% v/v Surfactant P20). Kinetic association (ka) and dissociation (kd) rate constants were determined by processing and fitting the data to a 1:1 binding model using Scrubber 2.0 curve fitting software."}, "[2]": {"biological_target": "T2, mouse big-ET-1 (SEQ ID NO:437) (Mus musculus, UniProt P22387)", "T2 sequence (P22387 53-91 limits assumed)": "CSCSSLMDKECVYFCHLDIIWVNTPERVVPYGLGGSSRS", "assay": "Surface plasmon resonance (Biacore) binding, mAb capture format, 37° C.", "settings": "for Kd / ka / kd: analyte mouse big-ET-1, mAb capture; for Kd: KD=kd/ka", "procedure": "as §1"}, "[3]": {"biological_target": "T3, human big-ET-1 (cleavage by human ECE-1) (Homo sapiens, UniProt P05305)", "T3 sequence (P05305 53-90 limits assumed)": "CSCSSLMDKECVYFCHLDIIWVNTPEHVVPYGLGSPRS", "assay": "NFAT luciferase reporter assay (293/ETaR/NFAT-Luc cells) for blocking of ECE-1-mediated cleavage", "type": "cell-based", "procedure": "(§2) Briefly, HEK293 cell lines were generated to stably express full-length human endothelin receptor type A (ETaR) along with a luciferase reporter element [NFAT (4×)-luciferase]. A single clone was isolated and maintained in 10% FBS, DMEM, NEAA, Pen/Strep, and 500 μg/ml G418 and 100 μg/ml hygromycin B.\n(§3) Both human and mouse big-ET-1 blocking experiments were allowed to incubate (37° C.; 5% CO2) overnight. The next morning these solutions were added to the 293/ETaR/NFAT-Luc cells (20,000 cells/well) and luciferase activity was detected after 5.5 hrs (37° C.; 5% CO2) using a Victor X plate reader (Perkin Elmer). The amount of luciferase activity observed under these conditions is a proportional representation of the amount of small-ET-1 generated from cleavage of either mouse or human big-ET-1."}, "[4]": {"biological_target": "T4, mouse big-ET-1 (cleavage by mouse ECE-1) (Mus musculus, UniProt P22387)", "T4 sequence (P22387 53-91)": "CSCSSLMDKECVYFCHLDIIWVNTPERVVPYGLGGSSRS", "assay": "NFAT luciferase reporter assay (293/ETaR/NFAT-Luc cells) for blocking of ECE-1-mediated cleavage", "type": "cell-based", "settings": "read-out: Blocking IC50 20 nM mBig-ET-1 + 5 nM mECE1; human Fc mAbs (Table 5)", "procedure": "as §2, §3"}, "[5]": {"biological_target": "T1, human big-ET-1 (SEQ ID NO:434)", "assay": "MALDI-TOF detection of C-term peptide product from cleavage of big-ET-1 by mouse ECE-1", "type": "biochemical", "parameters": "purchased R&D Systems (mouse ECE-1 only)", "description": "(§4) Matrix Assisted Laser Desorption Ionization Time of Flight (MALDI-TOF) mass spectrometry was used to determine if selected anti-big-ET-1 antibodies could block the conversion of human big-ET-1 (SEQ ID NO:434) or mouse big-ET-1 (SEQ ID NO:437) into its respective peptides in the presence of mouse endothelin converting enzyme 1 (ECE-1). Human big-ET-1 is specifically cleaved by mECE-1 at Trp-21/Val-22 forming both biologically active small-ET-1 (SEQ ID NO:435; MH^+ 2474) and a non-active C-term product (amino acids 22-38 of SEQ ID NO:434; MH^+ 1809). Mouse big-ET-1 is cleaved at Trp-21/VaI-22 into small-ET-1 (SEQ ID NO:435; MH^+ 2474) and its non-active C-term product (amino acids 22-39 of SEQ ID NO:437; MH^+ 1875). The appearance or absence of these masses, in the presence of antibody, can be monitored by MALDI-TOF. In the example below, the presence or absence of the C-term products served as an indicator for big-ET-1 cleavage since these peptides ionize more efficiently than small-ET-1 (SEQ ID NO:435; MH^+ 2474), thereby yielding a more sensitive readout.\n(§5) Briefly, human or mouse big-ET-1 (0.5 μM) was mixed with antibody (2.5 μM), in phosphate buffered saline (PBS), at a 1:5 molar ratio (big-ET-1:mAb). After a 1-hr incubation (25° C.), mouse ECE-1 (R&D Systems) was added at 40 nM and the solution was placed at 37° C. Aliquots for mass spectrometry analysis were taken at 0, 15, 30 and 60 minutes. Each aliquot was desalted via C18 Ziptip (Millipore) and analyzed in reflextron-positive mode using a Bruker Ultraflextreme MALDI-TOF instrument (Bruker Daltonics)."}, "[6]": {"biological_target": "T2, mouse big-ET-1 (SEQ ID NO:437)", "assay": "MALDI-TOF detection of C-term peptide product from cleavage of big-ET-1 by mouse ECE-1", "type": "biochemical", "parameters": "purchased R&D Systems (mouse ECE-1 only)", "description": "as §4, §5"}, "[7]": {"settings": "analyte human big-ET-1, mAb capture"}},
  "note": "Where two headings read alike, the source gives them in different places.",
  "data": [
    {"molecule": "H4H6311P: anti-big-ET-1 antibody, human IgG4 Fc; HCVR/LCVR SEQ ID NO: 98/106 (antibody, V domains shown, human IgG4 Fc) VH: QVQLVESGGGVVQPGRSLRLSCAASGFTFSTYGMHWVRQAPGKGLEWVAVFWFDGSNKYYADSVKGRFTISRDNSKNTIYLQMNSLRAEDTAIYYCARAYDAFDIWGQGTMVTVSS VL: [omitted - about 100 residues]", "values": [
      {"measurement": "binding to human big-ET-1 (in words)", "setting": "[1]", "value": "high affinity binding"},
      {"measurement": "ka", "setting": "[1]; [7]", "value": 19200, "unit": "M/s"},
      {"measurement": "kd", "setting": "[1]; [7]", "value": 0.000292, "unit": "s⁻¹"},
      {"measurement": "binding to mouse big-ET-1 (in words)", "setting": "[2]", "value": "did not show any binding"},
      {"measurement": "Kd", "setting": "[2]", "value": "> 1000", "unit": "nM"},
      {"measurement": "IC50", "setting": "[3]; read-out: Blocking IC50 10 nM hBig-ET-1 + 3 nM hECE1, human Fc mAbs (Table 5)", "value": "> 100", "unit": "nM"}
    ]},
    {"molecule": "H2M6741N: anti-big-ET-1 antibody, mouse IgG2 Fc; HCVR/LCVR SEQ ID NO: 82/90 (antibody, V domains shown, mouse IgG2 Fc) VH: QVQLVESGGGVVQPGRSLRLSCAASGFTFRSYGMHWVRQAPGKGLEWVAVIWYDGSDKYYADSVKGRFTISRDNSKNTLYLQMNSLRAEDTAVYFCAKDEYKTRGGYFDYWGQGTLVTVSS VL: [omitted - about 120 residues]", "values": [
      {"measurement": "ka", "setting": "[1]; [7]", "value": 582000, "unit": "M/s"},
      {"measurement": "kd", "setting": "[1]; [7]", "value": 0.137, "unit": "s⁻¹"},
      {"measurement": "Kd", "setting": "[1]; analyte human big-ET-1, mAb capture, KD=kd/ka", "value": 236, "unit": "nM"},
      {"measurement": "ka", "setting": "[2]", "value": 385000, "unit": "M/s"},
      {"measurement": "kd", "setting": "[2]", "value": 0.0891, "unit": "s⁻¹"},
      {"measurement": "Kd", "setting": "[2]", "value": 232, "unit": "nM"},
      {"measurement": "IC50", "setting": "[3]; read-out: Blocking IC50 10 nM hBig-ET-1 + 3 nM hECE1 [Trial 2], Trial 2, hybridoma mAbs", "value": 15, "unit": "nM"}
    ]},
    {"molecule": "H4H6495N: human IgG4 Fc format carrying identifier 6495N (variable domains HCVR/LCVR SEQ ID NO: 66/74 per nomenclature in b139) (antibody, V domains shown, human IgG4 Fc) VH: QVQLVESGGGVVQPGRSLRLSCAASGFTFRSYGMHWVRQAPGKGLEWVAVIWYDGSDKYYADSVKGRFTISRDNSKNTLYLQMNSLRAEDTAVYFCAKDEYKTRGGYFDYWGQGTLVTVSS VL: [omitted - about 120 residues]", "values": [
      {"measurement": "ka", "setting": "[1]; [7]", "value": 606000, "unit": "M/s"},
      {"measurement": "kd", "setting": "[1]; [7]", "value": 0.0399, "unit": "s⁻¹"},
      {"measurement": "IC50", "setting": "[4]", "value": "> 100", "unit": "nM"}
    ]},
    {"molecule": "H4H6334P: anti-big-ET-1 antibody, human IgG4 Fc; HCVR/LCVR SEQ ID NO: 242/250 (antibody, V domains shown, human IgG4 Fc) VH: EVQLVESGGGLVKPGGSLRLSCAVSGFTFSIDWMIWVRQAPGTGLEWVGRIKRKTDGGTTDYAAPVKGRFTISRDDSKNTLYLQMNSLKTEDTAIYYCATGGFERVGQGTLVTVSS VL: [omitted - about 100 residues]LTFGGGTKVEIK", "values": [
      {"measurement": "ka", "setting": "[1]; [7]", "value": "2.02e+06", "unit": "M/s"},
      {"measurement": "kd", "setting": "[1]; [7]", "value": "8.68e-05", "unit": "s⁻¹"},
      {"measurement": "ka", "setting": "[2]", "value": 7900, "unit": "M/s"},
      {"measurement": "kd", "setting": "[2]", "value": 0.000456, "unit": "s⁻¹"},
      {"measurement": "Detection of C-term Peptide Product, 0 min", "setting": "[5]; 0 min", "value": "−"},
      {"measurement": "Detection of C-term Peptide Product, 15 min", "setting": "[5]; 15 min", "value": "−"},
      {"measurement": "Detection of C-term Peptide Product, 30 min", "setting": "[5]; 30 min", "value": "−"},
      {"measurement": "Detection of C-term Peptide Product, 60 min", "setting": "[5]; 60 min", "value": "−"},
      {"measurement": "Detection of C-term Peptide Product, 0 min", "setting": "[6]; 0 min", "value": "−"},
      {"measurement": "Detection of C-term Peptide Product, 15 min", "setting": "[6]; 15 min", "value": "+ (C-term product was identified at all time points (denoted by “+” in Table 6))"},
      {"measurement": "Detection of C-term Peptide Product, 30 min", "setting": "[6]; 30 min", "value": "+ (C-term product was identified at all time points (denoted by “+” in Table 6))"},
      {"measurement": "Detection of C-term Peptide Product, 60 min", "setting": "[6]; 60 min", "value": "+ (C-term product was identified at all time points (denoted by “+” in Table 6))"}
    ]}
  ]
}
